{"source": "PubChem BioAssay AID686979", "about": "(National Center for Advancing Translational Sciences (NCATS), 2013)", "note": "Several values for one entry are separate records, joined by “and”; a condition that tells them apart may be missing. Equal values may be shown once. In all, about 420,000 compounds went through this assay and about 50,000 (12%) were called active. Inconclusive results, whose numbers are uncertain, are shown with a selection of clear calls. Calls follow the shape of the dose curve; as a rule, active = well fitted inhibition curve with a large enough effect; inconclusive = small, poorly fitted or top-dose-only effect; inactive = flat fitted curve, though single readings scatter. A potency beside an inconclusive call is a rough fit, not a confirmed value. % is scaled to controls: 0 for no effect and ±100 for the full control effect; potency is read from the fitted curve at half-maximal effect; tags tell the direction and shape of the fitted curve.", "data": [{"assay": "qHTS for Inhibitors of human tyrosyl-DNA phosphodiesterase 1 (TDP1): qHTS in cells in presence of CPT; also: nearly all actives have a fitted effect of over 55% in size", "conditions": "chicken DT40 Tdp1-/-;hTDP1 cells + 20 nM CPT, ATP luminescence, 48 h; activity change, negative = growth inhibition: at 46.2 µM (top of the series) unless noted", "outline": "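Chicken DT40 Tdp1-/- cells complemented with human TDP1, 400 cells/well, exposed to compounds plus 20 nM camptothecin for at least 48 h at 37 C; viability read as ATP content by CellTiter-Glo luminescence.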", "values": [{"molecule": "c1cncc(OC2CCN(Cc3ccc4c(c3)CN(Cc3ccc5c(c3)CCO5)CCO4)CC2)c1", "activity change, negative = growth inhibition": "inactive: -8.98% [at 9.04 µM]"}, {"molecule": "CCCN(C(=O)Cn1ncc2c([nH]c3ccccc32)c1=O)c1ccccc1C", "Potency": "inconclusive: 9.2 µM [inhibitor, partial curve]"}, {"molecule": "Cc1nn(C(C)C)c(C)c1CN1CCC(C(=O)Nc2cccc(-c3cccc(F)c3)c2)CC1", "Potency": "active: 23.1 µM"}, {"molecule": "COc1ccc(CNC(=O)COC(=O)c2sccc2C)cc1OC", "Potency": "inactive"}, {"molecule": "O=C(Nc1cccc(S(=O)(=O)NC2=NCCC2)c1)c1cn(-c2ccccc2)nc1-c1ccc(F)cc1", "Potency": "active: 3.66 µM"}, {"molecule": "Cc1ncoc1C(=O)N1CCCC(CCC(=O)NCc2ccc(F)c(F)c2)C1", "note": "(configuration not stated)", "Potency": "inactive"}, {"molecule": "COc1ccccc1-c1nc(C#N)c(N2CCN(C(c3ccccc3)c3ccccc3)CC2)o1", "Potency": "active: 16.4 µM"}, {"molecule": "CCOC(=O)C1(CCOc2ccccc2)CCN(Cc2cccs2)CC1", "Potency": "inconclusive: 25.9 µM [inhibitor, single point]"}, {"molecule": "COCCNC(=O)NC1(C(F)(F)F)Oc2ccc(Cl)cc2O1", "note": "(configuration not stated)", "Potency": "active: 18.4 µM"}, {"molecule": "O=C(NC1CCCCCC1)c1ccc[nH]c1=S", "Potency": "inactive"}, {"molecule": "CN(C(=O)CCOc1ccccc1)c1c(N)n(Cc2ccccc2)c(=O)[nH]c1=O", "Potency": "inactive"}, {"molecule": "COc1ccc(CCNC(=O)c2c[nH]c3ccc(F)cc3c2=O)cc1OC", "Potency": "inconclusive: 18.4 µM [inhibitor, single point]"}, {"molecule": "COCCNc1oc(/C=C/c2cccs2)nc1S(=O)(=O)c1ccccc1", "Potency": "inconclusive: 23.1 µM [inhibitor, single point]"}, {"molecule": "COc1ccc(/C=C2\\Oc3cc(OCC(=O)N4CCC[C@H]4C(=O)O)ccc3C2=O)c(OC)c1OC", "activity change, negative = growth inhibition": "inconclusive: -32.1% [inhibitor]"}, {"molecule": "COc1ccc(N2CCN(C(=O)c3ccc(C)c(NC(=O)c4nsc5ccccc45)c3)CC2)cc1", "Potency": "active: 25.9 µM"}, {"molecule": "O=C(N/N=C/c1ccc(Cl)cc1)c1cc(-c2cccnc2)nc2ccccc12", "Potency": "inconclusive: 1.46 µM [inhibitor, partial curve, poor fit]"}, {"molecule": "Cc1cc(C)n(-c2ccccc2[N+](=O)[O-])n1", "Potency": "inactive"}, {"molecule": "Fc1ccc(CN2CCN(C(c3ccccc3)c3ccccc3)CC2)cc1", "Potency": "inconclusive: 29.1 µM [inhibitor, single point]"}, {"molecule": "S=c1nc(-c2ccco2)[nH][nH]1", "Potency": "inactive"}, {"molecule": "CC(C)COC(=O)N1CCN(S(=O)(=O)c2ccc3c(c2)CCC3)CC1", "Potency": "inconclusive: 20.6 µM [inhibitor, single point]"}, {"molecule": "Cc1ccc(C)c(NC(=O)c2ccccc2O)c1", "Potency": "active: 8.2 µM"}, {"molecule": "COc1ccc(CSc2nnc(N)s2)cc1F", "Potency": "inconclusive: 25.9 µM [inhibitor, single point]"}, {"molecule": "CN(C)c1ccc(C=Nc2cnc3ccccc3c2)cc1", "Potency": "inconclusive: 11.2 µM [inhibitor, partial curve]"}, {"molecule": "Cc1ccc(S(=O)(=O)NCc2ccccc2)cc1C(=O)NCC(=O)Nc1c(C)cccc1C", "Potency": "inconclusive: 25.9 µM [inhibitor, single point]"}, {"molecule": "O=C(NC1CCCCC1)n1c(=O)oc2ccccc21", "Potency": "inconclusive: 20.6 µM [inhibitor, single point]"}, {"molecule": "Cc1nnc(SCc2ccc(C(=O)c3ccc(Cl)cc3)o2)n1-c1ccccc1", "Potency": "inconclusive: 18.4 µM [inhibitor, single point]"}, {"molecule": "COC(=O)c1ccc(C(=O)OC)c(NC(=O)/C=C/C(=O)O)c1", "Potency": "inconclusive: 23.1 µM [inhibitor, single point]"}, {"molecule": "COc1cccc(-c2cnc(C(O)c3ccc(Cl)cc3C)[nH]2)c1", "note": "(configuration not stated)", "Potency": "active: 23.1 µM"}, {"molecule": "CC(C)(C)OC(=O)N1CCC(c2c(C(=O)NCc3ccccn3)cnn2-c2ccccc2)CC1", "Potency": "inconclusive: 29.1 µM [inhibitor, single point]"}, {"molecule": "CC(C)CNC(=O)C1(C)CCCN1C(=O)c1cc2ccccc2s1", "note": "(configuration not stated)", "Potency": "inactive"}, {"molecule": "CCOC1C(=O)NC(=O)N1Cc1ccccc1", "note": "(configuration not stated)", "Potency": "inactive"}, {"molecule": "Cc1ccc(NC(=O)c2ccc(OCC3CCCO3)cc2)cc1", "note": "(configuration not stated)", "Potency": "inconclusive: 29.1 µM [inhibitor, single point]"}, {"molecule": "COc1ccccc1/C=C/C(=O)NCC(=O)N/N=C/c1ccc(C)o1", "Potency": "inactive"}, {"molecule": "Cc1cc(S(=O)(=O)N(Cc2ccccc2)Cc2ccc(N(C)C)cc2)ccc1-n1cnnn1", "Potency": "inconclusive: 23.1 µM [inhibitor, single point]"}, {"molecule": "c1ccc(-c2nc(-c3ccco3)cs2)nc1", "Potency": "active: 14.6 µM"}, {"molecule": "CCOC(=O)N1CCc2c(sc(N)c2C#N)C1", "Potency": "inconclusive: 1.16 µM [inhibitor, full curve, poor fit]"}, {"molecule": "CC(C)(C)c1ccc(C2CC2C(=O)N/N=C\\c2cc3ccccc3nc2Cl)cc1", "note": "(configuration not stated)", "Potency": "inconclusive: 18.4 µM [inhibitor, single point]"}, {"molecule": "O=C(NCC(c1ccco1)N1CCCCC1)c1ccc(OCc2ccccc2)cc1", "note": "(configuration not stated)", "Potency": "inactive"}, {"molecule": "COc1ccc(-c2csc(NC(=O)C3=NN(c4ccccc4)C(=O)CC3)n2)cc1", "Potency": "active: 14.6 µM"}, {"molecule": "COC(=O)c1sc2cccc(F)c2c1S(=O)(=O)N1CCN(c2cccc(C)c2)C(C)C1", "note": "(configuration not stated)", "Potency": "inconclusive: 29.1 µM [inhibitor, single point]"}, {"molecule": "COc1ccc(C(=O)NC(C)Cc2c[nH]c3ccccc23)cc1", "note": "(configuration not stated)", "Potency": "inconclusive: 29.1 µM [inhibitor, single point]"}, {"molecule": "Cc1nc2ccc(S(=O)(=O)N(CC(=O)Nc3ccc(F)cc3)Cc3ccccc3)cc2s1", "Potency": "inconclusive: 29.1 µM [inhibitor, single point]"}, {"molecule": "CCOc1ncccc1C(=O)Nc1ccc(C)c(S(=O)(=O)N2CCCCCC2)c1", "Potency": "active: 18.4 µM"}, {"molecule": "COc1ccc(N(C(=O)c2ccc(S(=O)(=O)N3CCCC3)cc2)C2C=CS(=O)(=O)C2)cc1", "note": "(configuration not stated)", "Potency": "inactive"}, {"molecule": "Cc1cc2c3ccccc3[nH]c(=O)n2n1", "Potency": "inactive"}, {"molecule": "COc1n[nH]c(C(=O)Nc2cc(Cl)ccc2Cl)c1[N+](=O)[O-]", "Potency": "inconclusive: 29.1 µM [inhibitor, single point]"}, {"molecule": "Cc1cc(C)c(C#N)c(N2CCN(S(=O)(=O)Cc3ccccc3)CC2)n1", "Potency": "inconclusive: 29.1 µM [inhibitor, single point]"}, {"molecule": "O=C1COc2ccc(S(=O)(=O)N3CCCC3)cc2N1", "Potency": "inactive"}, {"molecule": "CCc1ccc(-c2csc(NC(=O)C3=NN(c4ccccc4)C(=O)CC3)n2)cc1", "Potency": "inconclusive: 29.1 µM [inhibitor, single point]"}, {"molecule": "CCOC(=O)c1[nH]c(C)c(C(=O)OCC(=O)NCc2ccc(Cl)cc2)c1C", "Potency": "inactive"}, {"molecule": "Cc1ccccc1NC1=NC(C)(C)N=C(N)N1", "Potency": "inactive"}, {"molecule": "COC(=O)[C@@]1(Cc2ccc(F)cc2)[C@H]2c3cc(C(=O)N4CCCC4)n(CCc4ccc(OC)c(Br)c4)c3C[C@H]2CN1C(=O)c1ccccc1", "Potency": "inconclusive: 23.1 µM [inhibitor, single point]"}, {"molecule": "CC(C)(C)OC(=O)N1CCC(c2c(C(=O)N3CCN(C(=O)c4ccco4)CC3)cnn2-c2ccc(F)cc2F)CC1", "Potency": "inconclusive: 29.1 µM [inhibitor, single point]"}, {"molecule": "O=S(=O)(c1cc(F)ccc1F)N1CCN(c2ncccn2)CC1", "Potency": "inconclusive: 29.1 µM [inhibitor, single point]"}, {"molecule": "CC1(C)O[C@@H]2[C@H](O1)[C@@H](CO)O[C@H]2n1c(N2CCCCC2)nc2c(N)ncnc21", "Potency": "inactive"}, {"molecule": "Cn1c(=O)c2sccc2n2c(CCCC(=O)NCc3ccc4c(c3)OCO4)nnc12", "Potency": "inactive"}, {"molecule": "CC(C)(C)c1ccc(OCC(=O)NCCN2CCCC2)cc1", "Potency": "inactive"}, {"molecule": "O=C(Cc1ccccc1)N/N=C/c1ccc(OC(=O)/C=C\\c2ccco2)cc1", "Potency": "inactive"}, {"molecule": "COc1ccc(NC(=O)C(=O)c2cn(CC(=O)N3CCCC3)c3ccccc23)cc1", "Potency": "active: 0.411 µM"}, {"molecule": "COc1cc(CCNC2=CC(=O)c3ncccc3C2=O)ccc1O", "Potency": "active: 4.61 µM"}, {"molecule": "CCN(CC)S(=O)(=O)c1ccc(N2CCN(C)CC2)c(NC(=O)Nc2ccccc2F)c1", "Potency": "inconclusive: 29.1 µM [inhibitor, single point]"}, {"molecule": "CCCC1CCC(=NNC(=S)NCCc2ccccc2)CC1", "note": "(configuration not stated)", "Potency": "active: 16.4 µM"}, {"molecule": "CC(C)Oc1cc(F)ccc1-c1cc(C(=O)Nc2cccc(C(F)(F)F)c2)[nH]n1", "Potency": "active: 16.4 µM"}, {"molecule": "CCc1cccc(NC(=O)CN(C)S(=O)(=O)c2ccc3[nH]c4c(c3c2)CCCC4)c1", "Potency": "inconclusive: 20.6 µM [inhibitor, single point]"}, {"molecule": "CC(Sc1nc(C2CC2)n(-c2ccccc2)n1)C(=O)c1c(N)n(C)c(=O)n(C)c1=O", "note": "(configuration not stated)", "Potency": "inactive"}, {"molecule": "C[C@H](NC(=O)[C@@H]1CCCN1C(=O)[C@@H]1CCCN1C(=O)c1ccc(Cl)cc1)c1ccccc1", "Potency": "inactive"}, {"molecule": "COC(=O)c1ccc(Cn2nnc3c(=O)[nH]c(C4CCCN(S(=O)(=O)c5ccccc5Cl)C4)nc32)cc1", "note": "(configuration not stated)", "Potency": "inconclusive: 6.51 µM [inhibitor, single point] and inconclusive: 18.4 µM [inhibitor, single point]"}, {"molecule": "Cc1cc(C)nc(SCc2nnc(SCC(=O)Nc3nc(-c4ccccc4)cs3)n2-c2ccccc2)n1", "Potency": "inconclusive: 18.4 µM [inhibitor, single point]"}, {"molecule": "Cn1c(=O)c2ncn(CC(=O)Nc3ccc4c5c(cccc35)CC4)c2n(C)c1=O", "Potency": "inconclusive: 18.4 µM [inhibitor, partial curve]"}, {"molecule": "CCOc1ccc(Cl)cc1-c1cc(C(=O)NCc2ccccc2)[nH]n1", "Potency": "active: 11.6 µM"}, {"molecule": "COc1ccc(-c2cn3c(C)c(C(=O)Nc4cc(C)cc(C)c4)sc3n2)cc1", "Potency": "inconclusive: 29.1 µM [inhibitor, single point]"}, {"molecule": "COc1cc2cc(CN(CCO)S(=O)(=O)c3ccccc3Cl)c(=O)[nH]c2cc1OC", "Potency": "inactive"}]}]}
